According to PubChem BioAssay AID1346428 (National Center for Advancing Translational Sciences (NCATS), 2018):
Several values for one entry are separate records, joined by “and”; a condition that tells them apart may be missing. Equal values may be shown once. Hit rate of the full screen: of about 48,000 compounds, about 1,200 (2.5%) were called active. Roughly 2% stayed inconclusive and do not appear here.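 Rule for the calls: active = activation of at least 60% and not above a set upper limit (about 1 call in 100 departs from these limits); inconclusive = activation of 40% to 60%, or above that upper limit; inactive = activation under 40%.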 The list shows a part of the results.

Each compound was assayed against Probable G-protein coupled receptor 32 (Homo sapiens) (UniProt O75388) (assay: qHTS for Agonists of Human Resolvin D1 Receptor DRV1). Details: CHO-K1 GPR32 beta-arrestin PathHunter luminescence, 90 min; at 76.9 µM; stronger effect = higher value; zero percent set by DMSO-only wells.
Outline: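 PathHunter enzyme-fragment complementation, CHO-K1 GPR32 stable line; 2,500 cells/well, overnight attach; cpd 90 min 37 °C 5% CO2; detection reagent 1 h RT; chemiluminescence. DMSO = EC0.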
Note: 0% is about no effect.

Chain of UniProt O75388 (O75388 whole entry, looked up, the tested form may be a part): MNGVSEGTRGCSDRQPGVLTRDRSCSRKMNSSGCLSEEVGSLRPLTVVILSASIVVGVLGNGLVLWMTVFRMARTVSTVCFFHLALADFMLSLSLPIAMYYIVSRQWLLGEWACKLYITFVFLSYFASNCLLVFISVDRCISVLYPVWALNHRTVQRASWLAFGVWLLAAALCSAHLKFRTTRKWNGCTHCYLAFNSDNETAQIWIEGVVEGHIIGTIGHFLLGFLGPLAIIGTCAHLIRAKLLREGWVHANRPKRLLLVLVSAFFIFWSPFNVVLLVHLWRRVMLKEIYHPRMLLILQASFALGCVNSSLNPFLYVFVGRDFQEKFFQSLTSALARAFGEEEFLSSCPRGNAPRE

activation, inactive:
Cc1ccc(NC(=O)C(C)n2nnc3sc4c(c3c2=O)CCCC4)cc1Cl (centres undefined) 4.8%
CCc1ccc(NC(=O)CSc2nc3ccccc3c(=O)n2CCNC(C)=O)cc1 34.5%
CC(=O)c1ccc(NC(=O)CCCSc2nc(-c3ccco3)cc(C(F)(F)F)n2)cc1 0.415%
Oc1ccc(NCc2ccccc2OCc2ccccc2F)cc1 -30.7%
CCOc1ccc(OCC)c(NC(=O)C2CCN(c3nnc(-n4cccc4)s3)CC2)c1 0.204%
COc1ccccc1NC(=O)CCN1CCCCC1 -2.82%
Cc1c(Cl)cccc1NC(=O)c1ccc2snnc2c1 -29.8%
CCOC(=O)c1c(C)[nH]c(CCC(=O)NCc2ccccc2Cl)c1C -8.69%
Cc1nc(-c2ccccc2)sc1CCNC(=O)C(=O)Nc1ccc2c(c1)OCO2 23.4%
COc1ccc(NC(=O)CCCN2C(=O)CCn3nc(-c4cn(C)c5ccccc45)cc32)cc1OC 17.2%
O=P(O)(O)OCC(O)CO (centres undefined) 2.57%
Cc1ccc(N(C)C(=O)C2CCN(S(=O)(=O)c3c(C)noc3/C=C/c3c(C)cc(C)cc3C)CC2)cc1 -14.2%
COc1cccc(OCCSc2nc(C)c(Cc3ccccc3)c(=O)[nH]2)c1 -21.4%
Cc1cccc(C(=O)NCC(=O)OCc2cc(=O)n3nc(C4CCCCC4)sc3n2)c1 1.25%
CCOC(=O)c1cccc(NC(=O)CC2C(=O)N(c3ccc(OC)cc3)C(=O)N2C2CCCC2)c1 (centres undefined) -30.7%
Cc1cccc(N2CCN(S(=O)(=O)c3ccc4[nH]c5c(c4c3)CCCCC5)CC2)c1C -2.49%
COc1cccc(NC(=O)C2=C(C)C(=O)OC23CCN(C(C)=O)CC3)c1 -12.3%
COc1ccccc1C(=O)Nc1cc2c(cc1N1CCCC1)n(C)c(=O)c(=O)n2C 0.866%
COC(=O)CN1C(=O)CSc2ccc(S(=O)(=O)Nc3cccc(C)c3C)cc21 22.6%
Cc1ccc(CN2CCSc3ccc(C(=O)NCC(C)c4ccccc4)cc32)cc1 (centres undefined) -23.7%
CCN(CC)C(=O)Cn1nnc2sc(-c3ccccc3)cc2c1=O 28.6%
CCC(=O)N1c2ccc(S(=O)(=O)NCc3ccc(F)cc3)cc2CC1C (centres undefined) 13.2%
COc1cc2c(cc1OC)C(COc1ccc3c(C)cc(=O)oc3c1)N(C(=O)c1cc(Cl)ccc1OC)CC2 (centres undefined) -10.3%
Cc1oc2ccc(O)c(CN(C)Cc3ccccc3)c2c1C(=O)Nc1cccc(Cl)c1C -25.6%
CCCCn1c2ccccc2c2nnc(SCC(=O)Nc3ccc(NC(C)=O)cc3)nc21 -2.89%
Cc1ccccc1NC(=O)c1c2c(nc3ccccc13)C(=O)N(C1CCCCC1)C2 -8.58%
O=C(Nc1onc2c1CCCC2)c1ccc(Cl)cc1 34.3%
CCc1nc2nc(C)cc(Nc3ccc(Br)cc3F)n2n1 1.35%
COc1cc2nc(N3CCN(C(=O)C4CCCO4)CC3)nc(N)c2cc1OC (centres undefined) 10.8% and 2.8%
COc1ccccc1-c1cc(C(F)(F)F)nc(S(=O)(=O)CCCC(=O)Nc2cc(C)ccc2O)n1 26%
COC(=O)c1cc(S(=O)(=O)N2CCN(c3cccc(C)c3)C(C)C2)c[nH]1 (centres undefined) -4.98%
CC(=O)Nc1ccc(S(=O)(=O)Nc2ccc(-c3cn4c(C)csc4n3)cc2)cc1 -2.21%
CCc1c(C)sc(NC(=O)c2cc(-c3ccc(OC)cc3)on2)c1C#N -4.03%
Cc1ccc2c(=O)c(C(=O)c3ccc(F)cc3)cn(CC(=O)NC3CCCCC3)c2n1 4.46%
CCOc1ccc(CNC(=O)c2cc3c(=O)n(Cc4cccs4)ccc3nc2C)cc1 -30.6%
COc1cccc(CNC(=O)c2cc3n(n2)CCCN(Cc2ccc(C)cc2)C3=O)c1OC -7.79%
COc1ccc2c(Sc3ccccc3)c(C(=O)NCc3ccc(OC(C)C)cc3)[nH]c2c1 -10.9%
Cc1cccc(-c2nnc3n(CCc4ccccc4)c(=O)c4ccccc4n23)c1 -5.52%
CCOc1ccc(-n2c(SCC(=O)NCc3ccco3)nc3c([nH]c4ccccc43)c2=O)cc1 -6.73%
Oc1ccc(O)cc1 12.8% and 2.42%
Cc1ccc(Cn2ccnc2SCC(=O)Nc2ccc3c(c2)OCO3)cc1 6.19%
Cc1ccc(C)c(NC(=O)N2CCN(C)c3ncccc32)c1 9.95%
Cc1ccc(-n2c3nc(=O)[nH]c(=O)c-3cc3c(Cl)cccc32)cc1 16%
Cc1ccc(NC(=O)c2sc(-n3nc(C)c(Cc4ccc(Cl)cc4)c3C)nc2C)cc1 15.2%
CCOc1ccc(CNC(=O)c2ccc(-c3nc(CSc4ccc(C)cc4)c(C)o3)cc2)cc1 -4.58%
COc1ccc(Cl)cc1NC(=O)Cn1c(=O)n(Cc2ccco2)c(=O)c2ccc(C(=O)NC3CCCC3)cc21 41.7%
CCOc1ccc(NC(=O)c2c(NC(=O)Cc3ccccc3)sc3c2CCCC3)cc1 -6.51%
CCN(Cc1ccccc1)C(=O)Cn1c(=O)n(-c2ccc(OC)cc2OC)c(=O)c2c(C)c(C)sc21 -3.91%
O=C1c2[nH]nc(-c3ccccc3)c2C(c2ccccc2)N1c1cccc(C(F)(F)F)c1 (centres undefined) 33.6%
CCCc1cc(=O)n2[nH]c(NCc3ccc(CC)cc3)nc2n1 41.6%
O=C1SC(Nc2ccc(Cl)cc2)C(=O)N1Cc1ccccc1 (centres undefined) -78.7%
Cc1ccc(NC(=O)CCCn2c3ccccc3c(=O)c3cc(C)ccc32)c(Br)c1 -4.68%
CC1CCN(S(=O)(=O)c2ccc3c(c2)N(CC(=O)NCCc2ccc(Cl)cc2)C(=O)CO3)CC1 -4.52%
CCOC(=O)c1c(C)[nH]c(C)c1S(=O)(=O)N1CCC(C(=O)N2CCN(c3cc(C)ccc3C)CC2)CC1 -0.0117%
Cc1ccc2oc(C(=O)Nc3ccc(S(=O)(=O)Nc4onc(C)c4C)cc3)cc(=O)c2c1 15%
O=C1CS(=O)(=O)C2(C(=O)N(Cc3ccc(F)cc3)c3ccccc32)N1c1cccc(C(F)(F)F)c1 (centres undefined) -4.57%
Cc1c(Cl)cccc1Nc1nc(N)nc(CSc2nc3ccccc3s2)n1 11.8%
COc1cccc(C(=O)NCC(=O)OCc2cc(=O)n3nc(C)sc3n2)c1 -6.16%
O=C(CSc1ncc(S(=O)(=O)c2ccc(Cl)cc2)c(=O)[nH]1)Nc1ccc2c(c1)OCCO2 -5.22%
CCCCCC(N)=O 13%
CCCCNC(=O)C1=CC(c2ccc3c(c2)OCO3)=NS(=O)(=O)N1C -9.09%
CCOc1ccc(N(C)C(=O)C2CCN(S(=O)(=O)c3ccc4c(c3)CCCN4C(C)=O)CC2)cc1 1.66%
CCC(Sc1nc2ccncc2[nH]1)C(=O)Nc1ccc(F)cc1 (centres undefined) -2.68%
C[C@H]1C[C@H]2[C@@H]3CCC4=CC(=O)C=C[C@]4(C)[C@@]3(Cl)[C@@H](O)C[C@]2(C)[C@@]1(O)C(=O)CO -0.777%
O=S(=O)(c1ccccc1)c1nnn2c1nc(Nc1ccccc1)c1cc(Cl)ccc12 0.0332%
Cc1ccc(Cl)cc1N1CCN(C(=O)Cn2ncc3c([nH]c4ccccc43)c2=O)CC1 3.24%
COc1cccc(-n2c(=O)c3sc4ccccc4c3n(CC(=O)Nc3ccccc3OC)c2=O)c1 -11%
Cc1ccc(-n2nc(CO)c(C(=O)NCCc3ccccc3)n2)cc1 -10.2%
O=C(CSc1nnc(-c2ccc(Cl)cc2)o1)N1CCc2ccccc21 4.26%
Cc1ccc(Cn2cnc3c(oc4ccccc43)c2=O)cc1 -10.7%
Cc1cc(C)cc(NC(=O)C(NS(=O)(=O)c2cccc3nsnc23)c2ccccc2)c1 (centres undefined) -34%
COc1ccc(CCNC(=O)CCc2cn(Cc3ccc(C)cc3)c3ccccc23)cc1OC -27.6%
CCCCOc1nnc(-c2ccc(OCC)cc2)c2ccccc12 3.69%
CCOC(=O)N1CCN(C(=O)c2ccc3c(c2)N(Cc2cc(C)ccc2C)C(=O)c2ccccc2S3=O)CC1 (centres undefined) -12.2%
Cc1nc(N=Nc2ccc(C(=O)O)cc2)c(COP(=O)(O)O)c(C=O)c1O -4.28%
CCc1ccc(NC(=O)Cn2ccn(Cc3ccccc3OC)c(=O)c2=O)cc1 -14.2%
O=C(O)c1ccccc1NCCc1ccccc1 -34.4%
COc1cccc(-c2ccc3c(N)c(C(=O)c4ccc(Br)cc4)sc3n2)c1 -8.81%
O=C(Cc1ccc(Cl)cc1)Nc1nnc2n1CCS2 -11.4%
COc1ccc(C)cc1NC(=O)CCc1c(C)nn(-c2ccc(N3CCOCC3)nn2)c1C -7.98%
CCn1cc(S(=O)(=O)c2cccc(Cl)c2)c(=O)c2cc(F)c(N3CCC(C)CC3)cc21 -5.58%
Cc1ccc(NC(=O)c2c(C)oc3ncnc(N4CCCCC4)c23)cc1Cl 3.98%
Cc1ccc(-n2nc(C)c3c(C)cc(=O)n(CC(=O)N4CCCc5ccccc54)c32)cc1 16.2%
O=C(COCc1cc(-c2cccs2)on1)NCc1ccc(Cl)cc1 -0.376%
